Measured values taken from the supplement of paper PMC4967469.
IC50 is the fitted dose that halves viability relative to control wells, and lower means more sensitive; where the fit passes the top or lowest dose, that dose stands as a limit. The AUC spans the tested range (256-fold, ending at the top dose) of the same fit; it is 1 without any effect and falls as sensitivity rises. For part of these data: Any top dose called inferred comes from the curve model; the source does not state it.

Assays:
Experiment in all cases: Viability of human cancer cell lines after 72 h of drug (GDSC screen)
[1] = compound: CC(=O)O[C@H]1C(=O)[C@@]2(C)[C@H]([C@H](OC(=O)c3ccccc3)[C@]3(O)C[C@H](OC(=O)[C@H](O)[C@@H](NC(=O)c4ccccc4)c4ccccc4)C(C)=C1C3(C)C)[C@]1(OC(C)=O)CO[C@@H]1C[C@@H]2O [Paclitaxel]; conditions: top dose 0.1024 µM
Protocol: (§1)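 Human cancer cell lines in 384-well plates, medium with 10% serum, drug for 72 h over a 256-fold dose range (nine 2-fold or five 4-fold steps up to the top dose). Adherent lines were fixed and stained with the nucleic acid dye Syto60, suspension lines read with resazurin; signal relative to control wells, capped at 0 and 100%. One two-parameter sigmoid per drug and line, fitted in a mixed model over all curves with the slope shared within a line.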

[2] = compound: CC(C)C[C@H](NC(=O)[C@H](Cc1ccccc1)NC(=O)c1cnccn1)B(O)O [Bortezomib]; conditions: top dose 0.02 µM
Protocol: as §1

[3] = compound: COC1=CC(c2cc3ccccc3[nH]2)=N/C1=C\c1[nH]c(C)cc1C [Obatoclax mesylate]; conditions: top dose 16 µM
Protocol: as §1

[4] = compound: COCC(=O)NC/C=C/c1ccc2ncnc(Nc3ccc(Oc4ccc(C)nc4)c(C)c3)c2c1 [CP724714]; conditions: top dose 10.24 µM; top dose inferred
Protocol: as §1

[5] = compound: Cc1cccc(Nc2nc(-c3ccncc3)cs2)c1 [STF-62247]; conditions: top dose 10.24 µM; top dose inferred
Protocol: as §1

[6] = compound: Cc1cnc(CNC(=O)c2c(=O)c3ccc(N4CCCN(C)CC4)nc3n3c2sc2ccccc23)cn1 [CX-5461]; conditions: top dose 10.24 µM; top dose inferred
Protocol: as §1

| Cell Line | AUC [1] | IC50 [1] [nM] | AUC [2] | IC50 [2] [nM] | AUC [3] | IC50 [3] [nM] | AUC [4] | IC50 [4] [nM] | AUC [5] | IC50 [5] [nM] | AUC [6] | IC50 [6] [nM] |
| --- | --- | --- | --- | --- | --- | --- | --- | --- | --- | --- | --- | --- |
| GI-ME-N (neuroblastoma, adherent) | 0.761 | 49.2 | 0.465 | 0.969 | 0.611 | 2260 | 0.941 | > 10200 | 0.94 | > 10200 | 0.64 | 1800 |
| GOTO (neuroblastoma, adherent) | 0.854 | 98.3 | 0.82 | 13.5 | 0.645 | 2670 | 0.975 | > 10200 | 0.978 | > 10200 | 0.426 | 389 |
| GR-ST (lymphoblastic leukaemia, suspension) | 0.79 |  | 0.92 | > 20 | 0.083 | < 62.5 | 0.926 | > 10200 | 0.908 | > 10200 | 0.836 | 8930 |
| GT3TKB (stomach, adherent) | 0.336 | 2.38 | 0.537 | 1.56 | 0.22 | 174 | 0.987 | > 10200 | 0.984 | > 10200 | 0.976 | > 10200 |
| H9 (lymphoid neoplasm, suspension) | 0.466 | 5.27 | 0.407 | 0.731 | 0.168 | 128 | 0.974 | > 10200 | 0.981 | > 10200 | 0.992 | > 10200 |
| H-EMC-SS (chondrosarcoma, adherent) | 0.975 | > 102 | 0.819 | 16 | 0.64 | 2730 | 0.972 | > 10200 | 0.963 | > 10200 | 0.803 | 6910 |
| HA7-RCC (kidney, adherent) | 0.617 | 13.9 | 0.487 | 1.14 | 0.386 | 468 | 0.971 | > 10200 | 0.985 | > 10200 | 0.985 | > 10200 |
| HAL-01 (lymphoblastic leukaemia, suspension) | 0.982 | > 102 | 0.553 | 1.72 | 0.049 | < 62.5 | 0.988 | > 10200 | 0.919 | > 10200 | 0.283 | 170 |
| HC-1 (hairy cell leukaemia, suspension) | 0.532 | 7.78 | 0.605 | 2.4 | 0.549 | 1350 | 0.987 | > 10200 | 0.89 | > 10200 | 0.518 | 714 |
| HCC1599 (breast, suspension) | 0.694 | 24.5 | 0.752 | 7.48 | 0.328 | 308 | 0.975 | > 10200 | 0.968 | > 10200 | 0.57 | 1030 |
| HCC2157 (breast, suspension) | 0.866 | 99.3 | 0.68 | 4.09 | 0.521 | 1150 | 0.982 | > 10200 | 0.908 | > 10200 | 0.987 | > 10200 |
| HCC-33 (small cell lung carcinoma, adherent) | 0.887 | > 102 | 0.682 | 4.07 | 0.771 | 6210 | 0.965 | > 10200 | 0.988 | > 10200 | 0.96 | > 10200 |
| HD-MY-Z (Hodgkin lymphoma, adherent) | 0.635 | 15.1 | 0.579 | 2.06 | 0.754 | 5420 | 0.96 | > 10200 | 0.982 | > 10200 | 0.844 | 7390 |
| HDLM-2 (Hodgkin lymphoma, suspension) | 0.724 |  | 0.713 | 4.96 | 0.345 | 374 | 0.988 | > 10200 | 0.989 | > 10200 | 0.989 | > 10200 |
| HEL (acute myeloid leukaemia, semi-adherent) | 0.804 |  | 0.537 | 1.55 | 0.143 | 104 | 0.965 | > 10200 | 0.915 | > 10200 | 0.526 | 742 |
| HSC-39 (stomach, suspension) | 0.788 | 38.3 | 0.66 | 3.25 | 0.789 | 6010 | 0.99 | > 10200 | 0.975 | > 10200 | 0.37 | 296 |
| HT (B-cell lymphoma, suspension) | 0.83 | 57 | 0.586 | 2.1 | 0.258 | 218 | 0.988 | > 10200 | 0.974 | > 10200 | 0.905 | > 10200 |
| HT-144 (melanoma, adherent) | 0.572 | 10.3 | 0.345 | 0.442 | 0.047 | < 62.5 | 0.978 | > 10200 | 0.984 | > 10200 | 0.913 | > 10200 |
| HUTU-80 (digestive system, adherent) | 0.332 | 2.39 | 0.424 | 0.805 | 0.14 | 101 | 0.903 | 9410 | 0.968 | > 10200 | 0.261 | 154 |
| Hs-445 (Hodgkin lymphoma, suspension) | 0.668 | 18.1 | 0.556 | 1.76 | 0.531 | 1210 | 0.989 | > 10200 | 0.989 | > 10200 | 0.94 | > 10200 |
| IMR-5 (neuroblastoma, adherent) | 0.418 | 3.97 | 0.991 | > 20 | 0.182 | 138 | 0.982 | > 10200 | 0.988 | > 10200 | 0.288 | 181 |

| Cell Line | AUC [1] | IC50 [1] [nM] | AUC [2] | IC50 [2] [nM] | AUC [3] | IC50 [3] [nM] | AUC [4] | IC50 [4] [nM] | AUC [5] | IC50 [5] [nM] | AUC [6] | IC50 [6] [nM] |
| --- | --- | --- | --- | --- | --- | --- | --- | --- | --- | --- | --- | --- |
| IST-MEL1 (melanoma, adherent) | 0.645 | 17.5 | 0.459 | 0.947 | 0.062 | < 62.5 | 0.959 | > 10200 | 0.982 | > 10200 | 0.649 | 1800 |
| IST-MES1 (mesothelioma, adherent) | 0.842 | 72.7 | 0.814 | 11 | 0.375 | 450 | 0.977 | > 10200 | 0.987 | > 10200 | 0.942 | > 10200 |
| IST-SL1 (small cell lung carcinoma, semi-adherent) | 0.701 | 24 | 0.685 | 4.18 | 0.721 | 4320 | 0.986 | > 10200 | 0.984 | > 10200 | 0.782 | 4410 |
| IST-SL2 (small cell lung carcinoma, suspension) | 0.789 | 44.8 | 0.503 | 1.28 | 0.177 | 107 | 0.988 | > 10200 | 0.988 | > 10200 | 0.98 | > 10200 |
| JJN-3 (haematopoietic neoplasm, suspension) | 0.573 | 9.73 | 0.35 | 0.522 | 0.134 | 97.9 | 0.991 | > 10200 | 0.97 | > 10200 | 0.982 | > 10200 |
| JM1 (B-cell lymphoma, suspension) | 0.84 | 56.4 | 0.404 | 0.712 | 0.16 | 113 | 0.969 | > 10200 | 0.96 | > 10200 | 0.553 | 871 |
| JSC-1 (B-cell lymphoma, suspension) | 0.478 | 5.57 | 0.517 | 1.39 | 0.145 | 79.8 | 0.967 | > 10200 | 0.923 | > 10200 | 0.692 | 2200 |
| JVM-3 (lymphoid neoplasm, suspension) | 0.987 | > 102 | 0.845 | 14.8 | 0.873 | 15800 | 0.973 | > 10200 | 0.967 | > 10200 | 0.901 | > 10200 |
| JiyoyeP-2003 (Burkitt lymphoma, suspension) | 0.701 | 21.7 | 0.662 | 3.31 | 0.28 | 261 | 0.991 | > 10200 | 0.991 | > 10200 | 0.939 | > 10200 |
| K5 (thyroid, adherent) | 0.827 | 59.2 | 0.512 | 1.34 | 0.346 | 381 | 0.987 | > 10200 | 0.977 | > 10200 | 0.981 | > 10200 |
| KALS-1 (glioma, adherent) | 0.41 | 3.3 | 0.461 | 0.941 | 0.421 | 561 | 0.975 | > 10200 | 0.958 | > 10200 | 0.857 | > 10200 |
| KARPAS-45 (lymphoblastic leukaemia, suspension) | 0.634 | 14 | 0.642 | 2.86 | 0.053 | < 62.5 | 0.969 | > 10200 | 0.905 | 9740 | 0.817 | 4560 |
| KCL-22 (chronic myeloid leukaemia, suspension) | 0.582 | 10.3 | 0.428 | 0.82 | 0.187 | 144 | 0.978 | > 10200 | 0.972 | > 10200 | 0.814 | 4490 |
| KE-37 (lymphoblastic leukaemia, suspension) | 0.63 | 13.3 | 0.553 | 1.68 | 0.024 | < 62.5 | 0.993 | > 10200 | 0.964 | > 10200 | 0.752 | 2720 |
| KINGS-1 (glioma, adherent) | 0.663 | 21.6 | 0.419 | 0.688 | 0.502 | 1020 | 0.98 | > 10200 | 0.974 | > 10200 | 0.806 | 7760 |
| KM12 (large intestine, adherent) | 0.521 | 7.33 | 0.484 | 1.12 | 0.244 | 169 | 0.972 | > 10200 | 0.964 | > 10200 | 0.841 | 8000 |
| KM-H2 (Hodgkin lymphoma, suspension) | 0.778 | 35.1 | 0.584 | 2.04 | 0.445 | 726 | 0.993 | > 10200 | 0.985 | > 10200 | 0.993 | > 10200 |
| KMOE-2 (acute myeloid leukaemia, suspension) | 0.957 | > 102 | 0.544 | 1.62 | 0.299 | 292 | 0.984 | > 10200 | 0.877 | 8420 | 0.882 | 8860 |
| KNS-42 (glioma, adherent) | 0.577 | 10.9 | 0.307 | 0.321 | 0.369 | 405 | 0.982 | > 10200 | 0.977 | > 10200 | 0.767 | 4530 |
| KNS-81-FD (glioma, adherent) | 0.88 | > 102 | 0.599 | 2.57 | 0.348 | 326 | 0.981 | > 10200 | 0.981 | > 10200 | 0.73 | 3730 |
| KP-N-YN (neuroblastoma, adherent) | 0.898 | > 102 | 0.711 | 5.26 | 0.931 | > 16000 | 0.954 | > 10200 | 0.986 | > 10200 | 0.945 | > 10200 |
